B1: LINE1-mini (parent)
chain: GGCAGAGCUCAACACAGCGUGGCAAAGUGGCUGUGGCUAGACUGCC

The source gives no read counts; variants with many changes may rest on few reads.

The variants in the data set derive from B1. Briefly: self-cleavage, relative activity (ratio to wild type); higher = more cleavage; in vitro, sequencing; the parent is a self-cleaving ribozyme.
Turning to GGCAGAGCUCAAAACAGCUUGGCAAUGUGGCUGUGGCUAGACUGCC [C13A G19U A26U], the self-cleavage came to 0.41. The result for GGCAGAGCUCAAAACAGCUAGGCCAAGUGGCUGUGGCUAGAUUGCC [C13A G19U U20A A24C C42U] reads 0.02.

Consider GGCAGAGCUCAAAACAGCGUGGCAAAGUGGCCGUGGCUGGAGUGCU [C13A U32C A39G C42G C46U], for which the self-cleavage was determined as 0.01. The result for GGCAGAGCUCAAAACAGCGUGGCAAAGUGGCUGUAGCUAGACUGCG [C13A G35A C46G] reads 0.03; that for GGCAGAGCUCAAAACAGCGUUGCAAAGUGGCUCUGGCCAGACUGCC [C13A G21U G33C U38C], 0.02. The result for GGCAGAGCUCAAAACAGCGUGGCAAAGUGGCUGUGUCUGGACAGCC [C13A G36U A39G U43A] reads 0.03; that for GGCAGAGCUCAAAACAGCGUGUCAAAGUGGCUGUGCCUAGAAUGAC [C13A G22U G36C C42A C45A], 0.01; that for GGCAGAGCUCAAAACAUAGUGGCAAAGUGGCUGUGGCUAGACUGCC [C13A G17U C18A], 0.03. Next, GGCAGAGCUCAAAACAGCGUGUCAAAGUCGCUGUGGCUAGACUGCC [C13A G22U G29C]: 0.1. For GGCAGAGCUCAAAACAGCGUGGCAAAGUGGCUGUGGCUAGACUGGU [C13A C45G C46U], the self-cleavage came out at 0.12. Take GGCAGAGCUCAAAACAGCGUGGCAAAGAGGAUGUGGCUAGACUGCC [C13A U28A C31A]: the self-cleavage stood at 0.01. Next, GGCAGAGCUCAAAACAGCGUGGCAAAGUGGCAGUGGCUAGACUGCU [C13A U32A C46U]: 0. Take GGCAGAGCUCAAAACAGCGUGGCAAAGUGGCUGAGGCUAGACUGAC [C13A U34A C45A]: the self-cleavage amounted to 0.05. The result for GGCAGAGCUCAAAACAGCGUGGCAAAGUUGCUGUAGCUACACUGCC [C13A G29U G35A G40C] reads 0.02; that for GGCAGAGCUCAAAACAGCGUGACAAAGUGGCCGUGGCUAGACUGCC [C13A G22A U32C], 0.1; that for GGCAGAGCUCAAAACAGCCUGGCCAAGUGGCUGUGGCUAGACUGCC [C13A G19C A24C], 0.02.

For the variant GGCAGAGCUCAAAACAGCGUUGCAAAGUGGAUGUGGCUAGACUGCC [C13A G21U C31A], the self-cleavage was 0.06. The result for GGCAGAGCUCAAAACAGCGUGCCAAAGUGGCUGUGGCUAGACUGCA [C13A G22C C46A] reads 0.01; that for GGCAGAGCUCAAAACAGCGUGGCAAAAUGGCUGUGGCUAGACUACC [C13A G27A G44A], 0.05; that for GGCAGAGCUCAAAACAGCGUGGCAAAAUGGCUGUUGCUAGACUGCC [C13A G27A G35U], 0.4. As for GGCAGAGCUCAAAACAGCGUGGCAAAGUGGCUGUGGCUAAACUUCC [C13A G40A G44U], the self-cleavage was determined as 0.11.

Regarding GGCAGAGCUCAAAACAGCGUAGCAAAGUGGCUGUGCCUAGACCGCC [C13A G21A G36C U43C], the self-cleavage worked out at 0.03.

On to GGCAGAGCUCAAAACAGCGAGGUAAAGUGGCUGUGGCUAGACUGCC [C13A U20A C23U], for which the self-cleavage is 0.05.

With GGCAGAGCUCAAAACAGCGUGGCAAAGUGGCUGUUGCUAGGCUGCC [C13A G35U A41G], the self-cleavage was found to be 0.05. With GGCAGAGCUCAAAACAGCGUGUCAAAGUGGCUGUGGCUAGACAGGC [C13A G22U U43A C45G], the self-cleavage came to 0. For GGCAGAGCUCAAAACAGCAUGGGAAAGUGGCUGUGGGUAGACUGCC [C13A G19A C23G C37G], the self-cleavage is 0.01. Next, GGCAGAGCUCAAAACAGCGAGGCAAAGUGGCUUUGUCUAGACUGCC [C13A U20A G33U G36U]: 0.41; GGCAGAGCUCAAAACAGCGUGGCAAAGUACCUGUGGCUAGACUGCC [C13A G29A G30C]: 0.01. Consider GGCAGAGCUCAAAACAGCGUGGCAAAGUGGCUCUGACGAGACUGCC [C13A G33C G36A U38G], for which the self-cleavage came to 0. As for GGCAGAGCUCAAAACAGCGUUGCAAAGUGGCUGUGUCUAGACUGCC [C13A G21U G36U], the self-cleavage turned out to be 0.53.

As for GGCAGAGCUCAAAACAGCGUGGCAAAGUGCCUGUGGCUAGACCGCC [C13A G30C U43C], the self-cleavage is 0.03. Next, GGCAGAGCUCAAAACAGCGUGGCAAAGUGGCUGUGUCUACAUUGCC [C13A G36U G40C C42U]: 0.05; GGCAGAGCUCAAAACAGCGUGGCAAAGAGGCUGUGGCUAAACUGCA [C13A U28A G40A C46A]: 0.09; GGCAGAGCUCAAAACAGCGUGACAAAGUGGCUGUGGCUAAACUGCC [C13A G22A G40A]: 0.08. The result for GGCAGAGCUCAAAACAGCGUGCCAAUGUGGCCGCGGCUAGACUGCC [C13A G22C A26U U32C U34C] reads 0.02; that for GGCAGAGCUCAAAACAGCGUCGCAAAGUGGCUGUGGCUAAACUGCC [C13A G21C G40A], 0.07.

Regarding GGCAGAGCUCAAAACAGCAUGGCUAAGUGGCUGUGCCUAGACUGCC [C13A G19A A24U G36C], the self-cleavage worked out at 0.13. For GGCAGAGCUCAAAACAGCAUGGCAAAGUGGCUGUGGCUAGACUGUU [C13A G19A C45U C46U], the self-cleavage was 0.07. GGCAGAGCUCAAAACACCGUGCCAAAGUGGCUGUGGCUAGACUGCC [C13A G17C G22C]: the self-cleavage worked out at 0.02. For GGCAGAGCUCAAAACAGCCUGGCAAAGUGGCUGUGGUUAGACUGCG [C13A G19C C37U C46G], the self-cleavage came to 0.01. The result for GGCAGAGCUCAAAACAGCGUGAAAAAGUGGCUGUGGCUAGCCUGCC [C13A G22A C23A A41C] reads 0.01; that for GGCAGAGCUCAAAACAGCGUGGCAAAGUGGCGGUGGCUAGACUCCC [C13A U32G G44C], 0.05. Next, GGCAGAGCUCAAAACAGCGUGGCAAACUGGCUGUGGCUAUACUGCC [C13A G27C G40U]: 0.1. On to GGCAGAGCUCAAAACAUCGUGGAUAAGUGGCUGUGGCUAGACUGUC [C13A G17U C23A A24U C45U], for which the self-cleavage was found to be 0.02. Turning to GGCAGAGCUCAAAACAGCGUGCCAAAGUGGCUGUGGUUAGAAUGCC [C13A G22C C37U C42A], the self-cleavage came to 0.03. As to GGCAGAGCUCAAAACAGCGUGGCAAACCGGCUGUGGCUAGACUGCC [C13A G27C U28C], the self-cleavage is 0.05. The result for GGCAGAGCUCAAAACACCGUGGCAAAGUGGCUGUGGCUAGAAUGCC [C13A G17C C42A] reads 0.05; that for GGCAGAGCUCAAAACAGCGUGGCAAAGAGGCUGGGGCUAGACUCCC [C13A U28A U34G G44C], 0.01; that for GGCAGAGCUCAAAACACCGUGGCAAAGUGGCUGUGUCUAGACUGCC [C13A G17C G36U], 0.09. Next, GGCAGAGCUCAAAACAGCGUGGCAAAGUGGCUGUGGCUAGAGUACC [C13A C42G G44A]: 0.35. In the case of GGCAGAGCUCAAAACAGCGCGGCAAAGUGGCCGUGGCUAGACUGCC [C13A U20C U32C], the self-cleavage is 0.02. As for GGCAGAGCUCAAAACAGCGCGGCAAAUUGGCUGUGGCUAGGCUGCC [C13A U20C G27U A41G], the self-cleavage turned out to be 0.04. As to GGCAGAGCUCAAAACAGCGUGGCAAAGUGUCUGUGGCUCGACUGCU [C13A G30U A39C C46U], the self-cleavage turned out to be 0.02. As for GGCAGAGCUCAAAACACCGGGGCAAAUUGGCAGUCGCUAGACUGCC [C13A G17C U20G G27U U32A G35C], the self-cleavage worked out at 0.1. Next, GGCAGAGCUCAAAACAGCCUGGCAAAUUGGCCGUGACUAGACUGCC [C13A G19C G27U U32C G36A]: 0.03; GGCAGAGCUCAAAACACCGGGGCAAAGUGGCUGUGGCUAGACUGCC [C13A G17C U20G]: 0.1.

(Values after the RNAGym collection of RNA variant scans (doi:10.7554/elife.90254).)
